The supplement of paper PMC12217912
The list shows a part of the results. Sequences were assembled here from the parent chain. Inactive controls read about 0.05.

B1: TEV protease; numbered along this chain (parent)
chain: MGESLFKGPRDYNPISSSICHLTNESDGHTTSLYGIGFGPFIITNKHLFRRNNGTLVVQSLHGVFKVKDTTTLQQHLVDGRDMIIIRMPKDFPPFPQKLKFREPQREERICLVTTNFQTKSMSSMVSDTSCTFPSGDGIFWKHWIQTKDGQCGSPLVSTRDGFIVGIHSASNFTNTNNYFTSVPKNFMELLTNQEAQQWVSGWRLNADSVLWGGHKVFMVKPEEPFQPVKEATQL

Variants of: B1
Assay: raw area under fraction-flipped curve 0-4 h after induction (AUC4h, not background-subtracted), DNA-recorder readout of cleavage of the substrate (dimensionless); higher = more cleavage of the substrate by the protease variant
Conditions: temperature: 34 °C; time window: 0-4 h after rhamnose induction
Protocol: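 In vivo DNA recorder in E. coli TOP10(DE3) ΔrhaA at 34 °C. Each TEVp single-site mutant (parent TEVp 0) is paired with a single-site variant of the 7-mer TEVs (canonical ENLYFQ|S). The substrate sits between flexible linkers in a Bxb1-sfGFP-TEVs-SsrA fusion, so cleavage stabilises Bxb1 and speeds flipping of a recombination array, read by NGS. The value is the raw area under the fraction-flipped curve over 0-4 h after rhamnose induction (AUC4h), with ≥20 reads per time point. It is not background-subtracted; inactive controls average about 0.047.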
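Also: Bxb1 expression induced with 0.2% (w/v) L-rhamnose at OD600 near 0.5, cultures sampled hourly, flipped fraction per protease–substrate barcode pair counted by paired-end Illumina sequencing.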

Row | Variant | area with substrate ENAYFQS | area with substrate ENDYFQS | area with substrate ENEYFQS | area with substrate ENGYFQS | area with substrate ENHYFQS | area with substrate ENKYFQS | area with substrate ENNYFQS | area with substrate ENPYFQS | area with substrate ENTYFQS | area with substrate ENCYFQS | area with substrate ENFYFQS | area with substrate ENIYFQS | area with substrate ENMYFQS | area with substrate ENQYFQS | area with substrate ENRYFQS | area with substrate ENSYFQS | area with substrate ENVYFQS | area with substrate ENWYFQS | area with substrate ENYYFQS
1 | MGESLFKGPRDYNPISSSICHLTNESDGHTTSLYGIGFGPFIITNKHLFRRNNGTLVVQSLHGVFKVKDTTTLQQHLVDGRDMIIIRMPKDFPPFPQKLKFREPQREERICLVTTNFQTKSMSSMVSDTSCTFPSGVGIFWKHWIQTKDGQCGSPLVSTRDGFIVGIHSASNFTNTNNYFTSVPKNFMELLTNQEAQQWVSGWRLNADSVLWGGHKVFMVKPEEPFQPVKEATQL [D137V] | 0.049 | 0.0678 | 0.0611 | 0.0652 | 0.0282 | 0.0637 | 0.0496 | 0.0431 | 0.0474 |  |  |  |  |  |  |  |  |  | 
2 | MGESLFKGPRDYNPISSSICHLTNESDGHTTSLYGIGFGPFIITNKHLFRRNNGTLVVQSLHGVFKVKDTTTLQQHLVDGRDMIIIRMPKDFPPFPQKLKFREPQREERICLVTTNFQTKSMSSMVSDTSCTFPSCDGIFWKHWIQTKDGQCGSPLVSTRDGFIVGIHSASNFTNTNNYFTSVPKNFMELLTNQEAQQWVSGWRLNADSVLWGGHKVFMVKPEEPFQPVKEATQL [G136C] | 0.075 | 0.0621 | 0.0617 | 0.0571 | 0.0553 | 0.0649 | 0.0688 | 0.0633 | 0.0536 | 0.0632 | 0.0566 | 0.132 | 0.0992 | 0.0564 | 0.0609 | 0.0675 | 0.076 | 0.052 | 0.0582
3 | MGESLFKGPRDYNPISSSICHLTNESDGHTTSLYGIGFGPFIITNKHLFRRNNGTLVVQSLHGVFKVKDTTTLQQHLVDGRDMIIIRMPKDFPPFPQKLKFREPQREERICLVTTNFQTKSMSSMVSDTSCTFPSDDGIFWKHWIQTKDGQCGSPLVSTRDGFIVGIHSASNFTNTNNYFTSVPKNFMELLTNQEAQQWVSGWRLNADSVLWGGHKVFMVKPEEPFQPVKEATQL [G136D] | 0.0668 |  | 0.0619 | 0.0572 | 0.0592 |  | 0.0471 |  |  | 0.0499 |  |  | 0.0693 | 0.0748 | 0.0554 | 0.0667 |  |  | 0.0556
4 | MGESLFKGPRDYNPISSSICHLTNESDGHTTSLYGIGFGPFIITNKHLFRRNNGTLVVQSLHGVFKVKDTTTLQQHLVDGRDMIIIRMPKDFPPFPQKLKFREPQREERICLVTTNFQTKSMSSMVSDTSCTFPSGDGIVWKHWIQTKDGQCGSPLVSTRDGFIVGIHSASNFTNTNNYFTSVPKNFMELLTNQEAQQWVSGWRLNADSVLWGGHKVFMVKPEEPFQPVKEATQL [F140V] | 0.0431 | 0.0665 | 0.0595 | 0.0375 | 0.0562 | 0.0651 | 0.0645 |  | 0.0651 | 0.0488 | 0.0565 |  | 0.0642 | 0.0556 | 0.0449 | 0.0623 | 0.0489 |  | 
5 | MGESLFKGPRDYNPISSSICHLTNESDGHTTSLYGIGFGPFIITNKHLFRRNNGTLVVQSLHGVFKVKDTTTLQQHLVDGRDMIIIRMPKDFPPFPQKLKFREPQREERICLVTTNFQTKSMSSMVSDTSCTFPSGDGILWKHWIQTKDGQCGSPLVSTRDGFIVGIHSASNFTNTNNYFTSVPKNFMELLTNQEAQQWVSGWRLNADSVLWGGHKVFMVKPEEPFQPVKEATQL [F140L] | 0.0646 | 0.0626 |  | 0.065 | 0.0772 |  |  | 0.0705 | 0.0646 | 0.0553 |  | 0.0654 | 0.0838 | 0.0609 | 0.0625 | 0.0641 | 0.0591 | 0.0441 | 0.058
6 | MGESLFKGPRDYNPISSSICHLTNESDGHTTSLYGIGFGPFIITNKHLFRRNNGTLVVQSLHGVFKVKDTTTLQQHLVDGRDMIIIRMPKDFPPFPQKLKFREPQREERICLVTTNFQTKSMSSMVSDTSCTFPSGDGIWWKHWIQTKDGQCGSPLVSTRDGFIVGIHSASNFTNTNNYFTSVPKNFMELLTNQEAQQWVSGWRLNADSVLWGGHKVFMVKPEEPFQPVKEATQL [F140W] | 0.0504 |  |  |  | 0.0557 |  |  |  |  |  |  |  |  | 0.0389 |  |  |  | 0.0406 | 
7 | MGESLFKGPRDYNPISSSICHLTNESDGHTTSLYGIGFGPFIITNKHLFRRNNGTLVVQSLHGVFKVKDTTTLQQHLVDGRDMIIIRMPKDFPPFPQKLKFREPQREERICLVTTNFQTKSMSSMVSDTSCTFQSGDGIFWKHWIQTKDGQCGSPLVSTRDGFIVGIHSASNFTNTNNYFTSVPKNFMELLTNQEAQQWVSGWRLNADSVLWGGHKVFMVKPEEPFQPVKEATQL [P134Q] | 0.0692 | 0.0673 | 0.074 | 0.0504 |  | 0.0554 | 0.0604 |  |  | 0.0709 | 0.0685 | 0.0886 |  | 0.043 | 0.159 | 0.0489 |  |  | 
8 | MGESLFKGPRDYNPISSSICHLTNESDGHTTSLYGIGFGPFIITNKHLFRRNNGTLVVQSLHGVFKVKDTTTLQQHLVDGRDMIIIRMPKDFPPFPQKLKFREPQREERICLVTTNFQTKSMSSMVSDTSCTFPSGDGIFWKHWIDTKDGQCGSPLVSTRDGFIVGIHSASNFTNTNNYFTSVPKNFMELLTNQEAQQWVSGWRLNADSVLWGGHKVFMVKPEEPFQPVKEATQL [Q146D] | 0.0488 | 0.0708 | 0.0539 | 0.0604 | 0.0616 | 0.0445 | 0.0753 | 0.0585 |  | 0.0624 |  | 0.126 |  | 0.0624 |  | 0.0626 | 0.0753 | 0.0078 | 0.0571
9 | MGESLFKGPRDYNPISSSICHLTNESDGHTTSLYGIGFGPFIITNKHLFRRNNGTLVVQSLHGVFKVKDTTTLQQHLVDGRDMIIIRMPKDFPPFPQKLKFREPQREERICLVTTNFQTKSMSSMVSDTSCTFPSGDGVFWKHWIQTKDGQCGSPLVSTRDGFIVGIHSASNFTNTNNYFTSVPKNFMELLTNQEAQQWVSGWRLNADSVLWGGHKVFMVKPEEPFQPVKEATQL [I139V] | 0.0449 | 0.0562 | 0.0524 | 0.0561 |  | 0.0364 | 0.0663 |  | 0.0555 | 0.072 |  | 0.11 |  | 0.0624 |  | 0.0171 |  | 0.0515 | 0.0693
